# Laboratory results: the supplement of paper PMC3334620
# In all, about 33,000 sequences were measured (“E-score (-0.5 to 0.5)”: median about -0.054, highest 2% from about 0.35 on). This is one part of the list.
# Molecular target: T1, Stb5 (UniProt P38699)
# T1 sequence: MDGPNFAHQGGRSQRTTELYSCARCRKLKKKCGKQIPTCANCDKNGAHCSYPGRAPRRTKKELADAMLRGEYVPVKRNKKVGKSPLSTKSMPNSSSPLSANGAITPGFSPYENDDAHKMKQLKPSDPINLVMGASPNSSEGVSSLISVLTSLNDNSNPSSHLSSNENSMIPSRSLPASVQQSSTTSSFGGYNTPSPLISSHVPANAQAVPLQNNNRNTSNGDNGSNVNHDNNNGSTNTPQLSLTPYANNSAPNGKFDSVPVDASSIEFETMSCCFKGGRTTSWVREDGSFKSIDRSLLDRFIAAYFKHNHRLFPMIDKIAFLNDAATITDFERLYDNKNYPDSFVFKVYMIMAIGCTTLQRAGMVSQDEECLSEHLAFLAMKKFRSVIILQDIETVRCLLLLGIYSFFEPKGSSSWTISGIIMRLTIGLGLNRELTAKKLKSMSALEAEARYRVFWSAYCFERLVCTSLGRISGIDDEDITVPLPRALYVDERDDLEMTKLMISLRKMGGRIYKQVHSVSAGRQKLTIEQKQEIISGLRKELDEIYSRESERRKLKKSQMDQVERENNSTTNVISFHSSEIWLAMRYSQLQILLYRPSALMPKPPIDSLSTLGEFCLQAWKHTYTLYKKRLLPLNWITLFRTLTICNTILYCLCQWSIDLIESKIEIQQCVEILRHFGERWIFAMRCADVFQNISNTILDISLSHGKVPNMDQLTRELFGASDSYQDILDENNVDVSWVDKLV
# Assay: PBM E-score (8-mer binding enrichment) (E-score (-0.5 to 0.5)); higher = stronger / more preferred TF binding; most listed sequences are background and not binding sites
# Conditions: protein concentration: 200 nM; construct: GST-full length
# How it was run: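 Each ungapped eight-base word and its reverse complement, pooled, received an E-score from the Universal PBM Analysis Suite. Underlying scans, normalised with masliner, recorded fluorescent anti-GST bound to GST-tagged yeast transcription factors. These were applied at about 100-200 nM to universal all-10-mer Agilent arrays double-stranded by primer extension.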
row,Sequence,PBM E-score
1,GGCGCACC,0.0839
2,CCAAACCA,-0.074
3,AACTGCAG,-0.159
4,GTTATTAA,0.178
5,GCTGCAGA,-0.14
6,GACACTTA,0.0678
7,ATGTCAAA,-0.107
8,AAACACTT,-0.1
9,AACGCGAG,-0.161
10,TAGGATCA,-0.221
11,ACACGCAA,-0.202
12,GCAACCCA,-0.314
13,GCCCCGGA,0.289
14,CCCCGTCA,0.265
15,ATTCCAGC,-0.138
16,ACGTATAA,0.0262
17,ACCCCTAG,-0.161
18,CGGATGCA,0.163
19,GAATTTGC,-0.0561
20,GGTGAGAC,-0.00101
21,AGTCTTCC,-0.174
22,ACTAAAGT,-0.082
23,AGGAAAGC,-0.0135
24,CGACAATC,-0.0337
25,GAACTCAC,-0.221

row,Sequence,PBM E-score
1,CTTGAAGC,-0.0308
2,ATAGGCGC,0.0984
3,CACCGTGC,0.332
4,CCCGGACC,0.185
5,CCGCGGAA,0.265
6,CATAAAGA,-0.292
7,CTACGAAA,-0.063
8,AGCACCAC,-0.0526
9,CTCTGACA,-0.192
10,AATACCGT,0.438
11,TCAGTACA,-0.173
12,GCCGTGCC,0.206
13,ATGTTCCC,0.143
14,AACTGCAA,-0.186
15,AAGCCCTT,-0.131
16,AGGGGACG,-0.114
17,CATACCCA,-0.212
18,CTGGTTCA,-0.266
19,AGAACAAC,-0.129
20,CGACACTA,0.159
21,CATTTATA,0.138
22,GCCGTGGA,0.153
23,GACGCAGC,-0.159
24,AATAGGAG,-0.0903
25,TAGAAAGA,-0.0426

row,Sequence,PBM E-score
1,AATTGAAG,-0.0893
2,AGAAGCGC,0.141
3,ACTAGGAG,-0.0619
4,ACTCTTAC,-0.2
5,CGGTCCGA,0.389
6,AAGTGTAG,-0.142
7,AAAAAGTG,-0.115
8,ACAAGCAC,-0.00207
9,GTGTACGA,-0.0421
10,GCCCAGAC,-0.068
11,ATAGTGAT,-0.197
12,CCTGAAAA,-0.00317
13,CCGGTCGC,0.18
14,AATAAGTA,-0.0717
15,GCGCCCTA,0.053
16,AGATTTGA,-0.12
17,GGGGTTCA,0.0443
18,AGTCCAAC,-0.163
19,AGTCTTGC,-0.197
20,ATCTTTCA,0.018
21,GAGATTCC,0.09
22,AATCTTCC,-0.0895
23,ATGTTAGG,-0.219
24,AGAAGTCT,-0.259
25,CCATTAGA,-0.0178

row,Sequence,PBM E-score
1,ATCTAATG,0.00365
2,CTACATTA,-0.28
3,CACAAACA,0.0111
4,AGAACACC,0.225
5,ACACAAGA,-0.139
6,ATTACGAC,0.0228
7,GAGTCCCA,-0.0129
8,AGTTAGGG,-0.112
9,CCCGTTCC,0.222
10,AAACTTAA,-0.129
11,ACCGACTG,0.264
12,AACAAAAC,0.00124
13,ATAACAGA,-0.12
14,CAGTAGGA,-0.104
15,AAATCCTT,0.0218
16,AGGGTTGA,-0.255
17,CACCGGTC,0.337
18,TACCGGCA,0.31
19,CCCGGGCA,0.252
20,CTCGAATC,-0.166
21,AGACCGGG,0.311
22,ACGCAAGG,-0.0747
23,CTACCTCA,-0.148
24,AGCGCTAG,-0.0224
25,CATGTCCG,0.273

row,Sequence,PBM E-score
1,CCGGACGA,0.129
2,CCTTCAGA,-0.186
3,CACACGCG,-0.0214
4,AATTGATG,0.0383
5,ATGACGTC,0.0681
6,AACAGGTT,-0.0872
7,CAATCAGC,-0.0863
8,AGTTCATG,-0.143
9,CATGCGCC,0.106
10,CCCAGCGC,-0.0593
11,AATTGCAA,-0.0848
12,AGACGTGA,-0.276
13,CCGATAGG,0.285
14,AACTGAGC,-0.0713
15,ATCAATGG,-0.04
16,CGTCATGC,0.109
17,AGACATGG,-0.186
18,GTTTGTGA,-0.166
19,AGGAGAAT,-0.0644
20,AGTTGATC,-0.132
21,ACTGCCAA,-0.0471
22,ACGAACGA,-0.143
23,AGAATATC,0.148
24,AAGGTCTC,-0.26
25,TTCGCAAA,0.0798

row,Sequence,PBM E-score
1,AACCCCTG,0.118
2,ATCTAAAC,0.159
3,GCAACGAA,-0.223
4,ATTGTCTC,-0.143
5,CGCCATGA,-0.0191
6,TACTGTAA,-0.0225
7,TGAAACCA,-0.0203
8,CAACTCGA,-0.107
9,AGTAGGCG,-0.0333
10,CTATAGTA,0.142
11,ACGACTGA,-0.163
12,ATTTCAAA,-0.0839
13,GGTGGGAA,0.0469
14,CCTCCGCC,0.223
15,AATAGCTG,-0.0948
16,CACGCGCA,0.0401
17,CGAGATGC,0.0367
18,ATCCTTGA,-0.2
19,AATTTCCG,0.238
20,ATATCAGG,-0.0889
21,ACCCTCAA,-0.154
22,GGGACCCA,-0.0663
23,ATTATTTC,0.0326
24,AGGCCGTG,0.212
25,AAGTAATT,-0.096

row,Sequence,PBM E-score
1,CACAACGC,0.0974
2,CCTCCCAG,-0.176
3,GAATGCGA,0.00809
4,CTATCCAG,-0.0852
5,AGTAGCTA,-0.139
6,GGTAGCAC,0.0271
7,GTTTCGGA,0.14
8,AGCATACA,-0.0693
9,CTCAAGCC,-0.0953
10,CGGTGGAG,0.092
11,GAGAGAGC,-0.0519
12,CGGCCGAA,0.122
13,AGCCTTAT,-0.0816
14,GGGATCAA,0.187
15,GACGGACA,0.372
16,AGCGTTCC,-0.147
17,CTATTGAG,-0.239
18,GATTAATC,0.141
19,CATCCTCG,-0.0586
20,GTCGCTAA,-0.0706
21,ATATTATG,-0.108
22,ATATGCAA,-0.088
23,AACTATTA,-0.111
24,CCAACGAG,-0.155
25,CTGGTCCC,-0.1

row,Sequence,PBM E-score
1,ACTTAATG,0.0679
2,ATTTTTGA,-0.101
3,AAGTGGTA,-0.0407
4,AAGAAATG,-0.0985
5,CCTCACCA,-0.184
6,AGGGCTCG,-0.195
7,ACCGAGGG,0.0676
8,CCCGGGTC,0.352
9,CGGGTAAA,0.129
10,AGCGCGGC,0.189
11,CTACTCTA,-0.193
12,ATTTGGTA,-0.0383
13,CGATTAAA,0.0329
14,GATCTGAC,0.00731
15,CATGATAA,-0.0437
16,CGGCTCAG,0.186
17,TGTAGACA,-0.124
18,ACGCATAG,-0.111
19,ATCGTGTA,-0.154
20,CTCGGAAC,0.0193
21,CTGTTCTA,0.00922
22,ACGCATCT,-0.0683
23,GCATGTCC,0.0132
24,CAGTCGCA,-0.00139
25,ACCGAATC,0.227

row,Sequence,PBM E-score
1,ACAAGCGC,0.112
2,CTGCCACC,0.0336
3,GGGACCAC,0.115
4,AGGTACTG,-0.268
5,AGCCGATG,0.132
6,AAATTAAC,0.0536
7,ACGGAGAT,0.403
8,ATTAGACA,-0.176
9,TTTCGAAA,-0.308
10,CCTCGTTC,-0.0228
11,TATTACGA,0.103
12,ATCAAACA,-0.234
13,AATCCCAA,0.0066
14,ATATTGAT,-0.0533
15,CGGGGCCA,0.351
16,CACACCTA,0.0648
17,ACGCATAT,-0.0932
18,CAATTATG,0.161
19,ACTGGCAT,-0.231
